Test results reported in ChEMBL document CHEMBL4888484, “Replenishing the malaria drug discovery pipeline: Screening and hit evaluation of the MMV Hit Generation Library 1 (HGL1) against asexual blood stage Plasmodium falciparum ,using a nano luciferase reporter read-out” (2022).
In all, about 150,000 compounds went through this assay and about 540 (0.36%) showed an effect of 50% or more. Some of the results follow.

tested on: Plasmodium falciparum; experiment: Primary screen in NF54 nanoGlo assay, in single point, at 2uM, 72h; a lower Z score goes with more inhibition; type: functional, Erythrocyte; conditions: timepoint 72 hour

Structure (SMILES)	% Inhibition [%]	Z score
COc1ccc(Oc2c(CN(CC3CC3)C(=O)c3ccc(OC)cc3)c(C)nn2-c2cccc(Cl)c2)cc1	-3	0.48
Clc1cc(CN2CCC[C@H](Cn3cncn3)C2)cc2c1OCCO2	-10	1.39
O=C(NC(c1nccs1)C(F)(F)F)N1CC2CCC(O)CC2C1 (configuration not stated)	-5	0.87
CCN1C[C@@H]2CCN(CCc3ccccc3)C[C@]2(c2nc(C)no2)C1	-4	0.58
CC1(C)C[C@@H](NC(=O)c2cccnc2OCc2ccccc2F)CCO1	-15	2.88
Cc1cc2nc3n(c(=O)c2n1CC(=O)N1CCCc2ccccc21)CCCC3	-2	0.23
O=S(=O)(Cc1ccco1)[C@H]1CCN(S(=O)(=O)Cc2cccc(C(F)(F)F)c2)C1	-4	0.72
CCC[C@@]1(C)C(=O)NCCN1Cc1ncc(C)o1	1	-0.1
Cc1cc(C)c2c(c1)[C@@H](NCc1nnc3n1CCCCC3)CCCO2	-4	0.85
OCCCCN1CCc2[nH]nc(-c3ccc(-c4ccccc4)cc3)c2C1	-3	0.45
COc1cccc(C(=O)n2nc(Nc3ccc(Cl)cc3)cc2Nc2ccc(Cl)cc2)c1	25	-2.88
Cc1cccc(N2CCC3(CCCN3Cc3cccnc3N)CC2)n1	-17	1.66
Cc1nc(N2CCCC2)ccc1NC1CCN(C(=O)C(C)(C)C)CC1	-9	0.97
CN(C1CCC1)S(=O)(=O)c1ccc(OCC(F)(F)F)nc1	-5	0.77
CCc1nc(CN2C(=O)COc3cc(S(=O)(=O)Nc4ccc(C)cn4)c(C)cc32)no1	-1	0.09
O=C1CN(CCCNC(=O)Nc2cc(F)c(C(F)(F)F)cc2F)CCN1	-8	1.14
O=C(c1cn[nH]c1)N1CCC([C@H]2c3[nH]cnc3CCN2C(=O)Cc2ccccc2)CC1	-11	1.6
CNS(=O)(=O)C[C@H]1CCCN1Cc1cn(C)nc1C1CCCC1	3	-0.41
CC(C)c1ccc(S(=O)(=O)N2CCNC(=O)C23CCCC3)cc1	-7	1.31
Cc1ccccc1CN[C@@H]1C[C@@H](O)[C@H](CO)[C@H]1Cc1ccnc(-c2ccccc2F)n1	-2	0.31
COC(=O)c1c(C)[nH]c(C(=O)Nc2ccc(-c3cn4cccc(C)c4n3)cc2)c1C	15	-1.95

Structure (SMILES)	% Inhibition [%]	Z score
CCc1nc2ccccc2n1[C@@H](CC)C(=O)N(C)Cc1ccon1	0	0.05
O=C(NCCC1=CCCC1)NO[C@@H]1CCCCO1	-4	0.52
CN(C1CCOCC1)S(=O)(=O)c1ccc2c(c1)C(=O)CCC2	9	-1.22
CCn1ncc(C(=O)N(CCCN2CCCC2=O)C2CCOCC2)c1C	-5	0.87
O=C(c1ccc2ccccc2n1)N1CC[C@H](Cc2nncn2CC2CC2)C1	-3	0.6
O=C(c1ccccn1)N1CC[C@@]2(CCCN(C3CCCCC3)C2=O)C1	10	-1.71
Cc1nc(CNC(=O)Nc2ccccc2OC2CCN(C)CC2)sc1C	-18	1.68
Cc1cc(C)nc(NCC2(N3CCOCC3)CCOCC2)n1	-2	0.23
Cc1cc(CN2CCN(C(=O)Nc3c(F)c(F)c(F)c(F)c3F)CC2)on1	7	-1.37
O=S(=O)(CC1CCCCC1)N1CCCC1	15	-1.75
CCC(=O)Nc1cccc(-n2nc(OC(C)C)nc2-c2cccs2)c1	-3	0.41
CC(C)(C)c1ccc(C(=O)Nc2cc(-c3ccccc3F)nn2-c2ccccc2)cc1	-9	1.28
Cc1ccc(-c2nc3n(CC(=O)Nc4ccc(Cl)cc4)c4c(c(=O)n3n2)CCC4)cc1	-3	0.31
C[C@H]1C(=O)N(C)C[C@H](CO)N1Cc1ccc2c(c1)OCCO2	-11	1.35
CC(C)C[C@H](NC(=O)c1ccnn1CCO)C(N)=O	-14	1.76
O=C(NC1CCN(Cc2ccccc2)CC1)c1cnn2c1OCCC2	-11	1.69
CC1CCCCN1C(=O)NCCC1CCCO1 (configuration not stated)	-6	0.74
Cc1nc2cc(CNC(=O)[C@H]3CCCN(C4CCCC4)C3)ccc2n1C	0	-0.02
C[C@H](Nc1ccc(N2CCCC2=O)cc1)C(=O)N1CCCCC1	-11	2
Cc1cccc(S(=O)(=O)CCCn2cncn2)c1	8	-0.96
